The text below walks through data of PubChem BioAssay AID360 (National Center for Advancing Translational Sciences (NCATS), 2006).

SMILES strings stand for the structures. The whole screen tested about 48,000 compounds, of which about 550 (1.1%) were called active. Not shown: some 4% with an inconclusive outcome. Rule as the data show it: active = potency below about 15 µM; inconclusive = mostly about 16 µM to 33 µM; inactive = weaker than that. This is one part of the list.
Potency is read from the fitted curve at half-maximal effect.

The test addresses Lysosomal acid glucosylceramidase (Homo sapiens) (UniProt P04062). Nature of the test: Glucocerebrosidase.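 Also: the screen sought inhibitors.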 As to conditions: purified enzyme, resorufin glucoside fluorescence (screen aimed at inhibitors), 20 min. The procedure, abridged: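 Wild-type enzyme at 0.2 nM final in 50mM citric acid/KH2PO4, 10mM sodium taurocholate, 0.01% tween-20, pH 5.9, with resorufin beta-D-glucopyranoside at 30 uM final. Compounds titrated, 20 min at RT, red fluorescence read; AC50 from titration.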
UniProt P04062, sequence (P04062 whole entry, looked up): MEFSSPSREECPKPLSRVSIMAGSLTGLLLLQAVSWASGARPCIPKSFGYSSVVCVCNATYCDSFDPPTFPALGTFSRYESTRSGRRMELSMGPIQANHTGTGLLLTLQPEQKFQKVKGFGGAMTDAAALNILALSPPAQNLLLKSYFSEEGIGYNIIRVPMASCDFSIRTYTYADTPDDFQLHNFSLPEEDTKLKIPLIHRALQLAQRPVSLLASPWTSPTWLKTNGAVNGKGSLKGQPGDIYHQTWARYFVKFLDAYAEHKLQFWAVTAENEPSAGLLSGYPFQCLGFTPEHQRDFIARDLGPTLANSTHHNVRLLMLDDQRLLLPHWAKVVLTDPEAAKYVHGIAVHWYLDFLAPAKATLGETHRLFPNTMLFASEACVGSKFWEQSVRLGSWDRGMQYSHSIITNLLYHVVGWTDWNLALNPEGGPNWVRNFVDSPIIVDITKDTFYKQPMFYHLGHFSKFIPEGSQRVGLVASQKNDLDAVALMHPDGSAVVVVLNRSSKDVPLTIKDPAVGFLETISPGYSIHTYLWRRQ
Consider `N#CN=C1SCCS1`, for which the Potency is inactive: > 76.9 µM.

`O=C(Nc1nncs1)c1cccc(S(=O)(=O)N2CCCC2)c1`: the Potency was inactive: > 76.9 µM.

As to `CCCCC(=O)Nc1cc(NC(=O)CCCC)cc(C(=O)O)c1`, the Potency was inactive: > 76.9 µM.

With `CC(C)n1c(Sc2nccn2C)nc2c1c(=O)n(C)c(=O)n2C`, the Potency was inactive: > 76.9 µM.

Regarding `c1cnc(N2CC[N+]3(CCCC3)CC2)nc1`, the Potency is inactive: > 76.9 µM.

Regarding `Cc1cc(NC(=O)CSc2nc(CCC3CCCC3)nc3ccccc23)no1`, the Potency was inactive: > 76.9 µM.

For `CCOC(=O)NCCc1c(C)nc2c(c(C)nn2C(C)(C)C)c1C`, the Potency was inactive: > 76.9 µM.

`O=C(O)CCCNS(=O)(=O)c1ccc2ccccc2c1`: the Potency was inactive: > 76.9 µM.

Regarding `O=C(NC1CCCCCCC1)c1ccc2c(c1)OCO2`, the Potency is inactive: > 76.9 µM.

For `COc1ccc(C2C(CC(=O)O)=C(O)C(=O)N2c2ccccc2)cc1` (stereo unspecified), the Potency was inactive: > 76.9 µM.

In the case of `C=CCOc1cccc(C2C(C(=O)c3ccc(C)o3)=C(O)C(=O)N2c2nccs2)c1` (stereo unspecified), the Potency is inactive: > 76.9 µM.

Take `O=C(O)CCn1cnc2ccccc2c1=O`: the Potency is inactive: > 76.9 µM.

Consider `O=C(N1CCOCC1)N1CCN(S(=O)(=O)N2CCOCC2)CC1`, for which the Potency was inactive: > 76.9 µM.

Consider `CCSc1nnc(NC(=O)c2ccc(C)o2)s1`, for which the Potency was inactive: > 76.9 µM.

Take `CCn1c(=O)cc(SCC(=O)N2CCCCC2)c2ccccc21`: the Potency was inactive: > 76.9 µM.

Take `CCc1c(C)nc(N2CCN(Cc3ccccc3)CC2)[nH]c1=O`: the Potency is inactive: > 76.9 µM.

Turning to `CCn1nc(C(=O)OCC(=O)N2c3ccccc3CC2C)c2ccccc2c1=O` (stereo unspecified), the Potency is inactive: > 76.9 µM.

Take `Cc1ccc(C)c(-c2nc3ccc(N)cc3[nH]2)c1`: the Potency result is “inactive”.

`CN(C)c1cc[n+](Cc2ccccc2)cc1`: the Potency was inactive: > 76.9 µM.

For `COc1cccc(S(=O)(=O)Nc2ccc(C(=O)N3CCOCC3)cc2)c1`, the Potency is inactive: > 76.9 µM.

`Cc1ccc(N2C(=O)Nc3ccc(Br)cc3C2(O)C(=O)NCCCN(C)C)cc1C` (stereo unspecified): the Potency was inactive: > 76.9 µM.

In the case of `O=C(CN1CCN(C(=O)c2cccs2)CC1)NC1CCCCC1`, the Potency was inactive: > 76.9 µM.

Take `Cc1ccc(S(=O)(=O)Cn2nnnc2CN2CCCC3(CCCCC3)C2)cc1`: the Potency was inactive: > 76.9 µM.

As for `O=C(CCc1ccc(S(=O)(=O)N2CCOCC2)cc1)Nc1cc(Cl)ccc1N1CCOCC1`, the Potency is inactive: > 76.9 µM.

For the compound `O=C(c1cc(-n2cnnc2)ccc1Cl)N1CCN(c2nc(-c3ccccc3)cs2)CC1`, the Potency is inactive: > 76.9 µM.

`COCCn1nnnc1C(c1ccc(OC)cc1)N1CCN(c2ccccc2F)CC1` (stereo unspecified): the Potency was inactive: > 76.9 µM.

On to `CCc1c(C)nc(N)n2c(SCC(=O)N3CCCC(C)C3)nnc12` (stereo unspecified), for which the Potency was inactive: > 76.9 µM.

As to `COC(=O)c1sc(NC(=O)c2ccoc2C)nc1C`, the Potency is inactive: > 76.9 µM.

Regarding `CCCn1cnc2c(c1=O)c1nc3ccccc3nc1n2CCC1=CCCCC1`, the Potency was inactive: > 76.9 µM.

Take `CC(C)OC(=O)CSc1nc2ncc(Cl)cc2[nH]1`: the Potency was inactive: > 76.9 µM.

In the case of `Cn1c(-c2ccccc2)cnc1SCc1nc2ccccc2c(=O)[nH]1`, the Potency is inactive: > 76.9 µM.

For `CCCC1(C(=O)OCC)NC(c2ccc(N(C)C)cc2)C2C(=O)N(c3ccccc3)C(=O)C21` (stereo unspecified), the Potency is inactive: > 76.9 µM.

As for `O=C(NCc1ccc2c(c1)OCO2)c1c(F)c(F)c(F)c(F)c1F`, the Potency is inactive: > 76.9 µM.

For `CCC1CCCCN1C(=O)CSc1nnc(-c2ccc(Cl)s2)o1` (stereo unspecified), the Potency was inactive: > 76.9 µM.

Turning to `O=C(C1CCN(S(=O)(=O)c2cccnc2)CC1)N1CCN(c2ccc(Cl)cc2)CC1`, the Potency was inactive: > 76.9 µM.

As for `CCOC(=O)c1c(C)[nH]c(C(=O)COC(=O)CNC(=O)C2CCCCC2)c1C`, the Potency is inactive: > 76.9 µM.

As for `CC(C)c1ccc2oc(=O)cc(CN3CCN(c4ccc(F)cc4)CC3)c2c1`, the Potency is inactive: > 76.9 µM.

For `Cc1nn(Cc2ccccc2Cl)c(C)c1C(=O)N1CCN(c2ccccc2)CC1`, the Potency was inactive: > 76.9 µM.

On to `CCn1cnc2c1c(=O)n(Cc1nnc3n1-c1ccccc1SC3)c(=O)n2Cc1ccccc1`, for which the Potency was inactive: > 76.9 µM.

For `Cc1ccc(C(=O)CSc2nc3cc(S(=O)(=O)N4CCOCC4)ccc3o2)cc1`, the Potency is inactive: > 76.9 µM.

Turning to `CCCCc1c(O)nc(SCC(=O)c2ccccc2)[nH]c1=O`, the Potency was inactive: > 76.9 µM.

`Cc1c(Cl)cccc1NC(=O)CSCC(N)=O`: the Potency is inactive: > 76.9 µM.

In the case of `CCN(Cc1cc2ccc(C)cc2[nH]c1=O)C(=O)c1ccncc1`, the Potency is inactive: > 76.9 µM.

Take `O=c1[nH]cnc2scc(-c3ccsc3)c12`: the Potency was inactive: > 76.9 µM.

Consider `Cc1cccc(CCNC(=O)CCc2nc(-c3ccccc3F)no2)c1`, for which the Potency was inactive: > 76.9 µM.

Take `COc1ccc(Cc2nnc(SCC(=O)Nc3ncc(C)s3)o2)cc1`: the Potency is inactive: > 76.9 µM.

For the compound `CCOC(=O)CNc1nc(-c2ccncc2)nc2ccccc12`, the Potency was inactive: > 76.9 µM.

For `COc1ccc(C)cc1S(=O)(=O)Nc1ccccc1C`, the Potency was inactive: > 76.9 µM.

Turning to `[O-][n+]1ccc(C2CC2)cc1`, the Potency is inactive: > 76.9 µM.

As for `COc1cc(-c2nc(S(=O)(=O)c3ccc(C)cc3)c(N(C)C)o2)cc(OC)c1OC`, the Potency is inactive: > 76.9 µM.

Consider `Cc1ccc(C(=O)O)cc1S(=O)(=O)NCC1CCCO1` (stereo unspecified), for which the Potency is inactive: > 76.9 µM.

Turning to `O=C1CCCN1CCCNc1ncnc2c1[nH]c1ccccc12`, the Potency is inactive: > 76.9 µM.

`CCCS(=O)(=O)N1CCC(C(=O)N2CCC(Cc3ccccc3)CC2)CC1`: the Potency was inactive: > 76.9 µM.

With `Cc1cc(C(=O)Nc2sc(C)c(C)c2C#N)no1`, the Potency is inactive: > 76.9 µM.

Regarding `O=C(NCC1CCCO1)NC1(C(F)(F)F)Oc2ccccc2O1` (stereo unspecified), the Potency was inactive: > 76.9 µM.

Take `COc1cccc(C(=O)Nc2cc(NC(=O)c3ccco3)ccc2OC)c1`: the Potency was inactive: > 76.9 µM.

With `COc1cccc(C(c2nnnn2Cc2ccccc2)N2CCN(C3CCCC3)CC2)c1OC` (stereo unspecified), the Potency is inactive: > 76.9 µM.

Consider `Cc1ccc(-c2nsc3c(N4CCN(C(=O)c5ccco5)CC4)ncnc23)cc1`, for which the Potency is inactive: > 76.9 µM.

With `CC1(C)CC(=O)c2cc(OCC(=O)NCCN3CCCc4ccccc43)ccc2O1`, the Potency was inactive: > 76.9 µM.

In the case of `Cc1cc(S(=O)(=O)N2CCC(NC(=O)C34CC5CC(CC(C5)C3)C4)CC2)ccc1-n1cnnn1`, the Potency was inactive: > 76.9 µM.

In the case of `Cc1ccc2nc(Nc3ccc4[nH]c(=O)[nH]c4c3)c(-n3nc(C)cc3C)nc2c1`, the Potency was inactive: > 76.9 µM.

Turning to `O=C(COC(=O)C1c2ccccc2Oc2ccccc21)Nc1ccc2c(c1)OCO2`, the Potency was inactive: > 76.9 µM.

Consider `Cc1cc(NC(=O)c2ccc(NC(=O)C(C)Oc3ccccc3)cc2)no1` (stereo unspecified), for which the Potency was active: 1.93 µM.

As for `COc1ccc(N/C(N)=N/c2nc(CSc3ccc(C)cc3)cc(=O)[nH]2)cc1`, the Potency was active: 9.71 µM.

Regarding `Cc1ccccc1NS(=O)(=O)c1ccc(OCC(=O)NCc2ccco2)cc1`, the Potency was inactive: > 76.9 µM.

Consider `COc1cc(C(=O)Nc2ccc3c(c2)OCCO3)ccc1-n1cnnn1`, for which the Potency is inactive: > 76.9 µM.

Regarding `O=C(CNS(=O)(=O)c1ccccc1)N1CCN(c2ccccc2)CC1`, the Potency is inactive: > 76.9 µM.

For `Cc1ccc(-n2ncc3c(=O)n(CC(=O)Nc4cccc(Cl)c4)cnc32)cc1C`, the Potency is inactive: > 76.9 µM.

Consider `CCOC(=O)N1CCN(c2c(-c3ccc(C(C)C)cc3)c(=O)c2=O)CC1`, for which the Potency was inactive: > 76.9 µM.

Turning to `CCOC(=O)c1ccccc1NC(=O)c1ccc(N(C)S(C)(=O)=O)cc1`, the Potency was inactive: > 76.9 µM.

On to `COc1ccc2[nH]c(=O)c(C(c3nnnn3C3CCCCC3)N3CCN(C)CC3)cc2c1` (stereo unspecified), for which the Potency was inactive: > 76.9 µM.

With `COC(=O)c1cccc(-n2nnnc2SCC(=O)Nc2nc3c(s2)CCCC3)c1`, the Potency is inactive: > 76.9 µM.

Take `CSc1ccc2[nH]c(=O)cc(C)c2c1`: the Potency was inactive: > 76.9 µM.

On to `COCc1[nH]nc2c1C(c1ccccc1F)C(C#N)=C(N)O2` (stereo unspecified), for which the Potency was inactive: > 76.9 µM.

As to `Cc1ccccc1-c1nnc(-c2ccc(Br)cc2)o1`, the Potency is inactive: > 76.9 µM.

Take `COC(=O)c1ccc(CN(C)S(=O)(=O)c2ccc(C)cc2)o1`: the Potency was inactive: > 76.9 µM.

As to `CCn1nnnc1NCc1cccn1C`, the Potency was inactive: > 76.9 µM.

As for `CCOC(=O)C1CCCN(C(=O)c2cnn3c(C(F)F)cc(-c4ccc(C)cc4)nc23)C1` (stereo unspecified), the Potency was inactive: > 76.9 µM.

As to `COc1ccc(Oc2nc(C)nc3c2oc2ccccc23)cc1`, the Potency is inactive: > 76.9 µM.

As for `O=C(CCN1CCN(c2ccc(F)cc2)CC1)Nc1ccccc1F`, the Potency is inactive: > 76.9 µM.

Regarding `O=C(NCCc1ccccc1)c1ncn[nH]1`, the Potency was inactive: > 76.9 µM.

On to `O=C(COc1ccc(S(=O)(=O)N2CCCCC2)cc1)NC1CCCCC1`, for which the Potency was inactive: > 76.9 µM.

Consider `COC(=O)Nc1ccc(S(=O)(=O)N2CCCCCC2)cc1`, for which the Potency was inactive: > 76.9 µM.

On to `O=C(NCCN1CCNCC1)c1ccccn1`, for which the Potency is inactive: > 76.9 µM.

For the compound `CS(=O)(=O)c1nc(-c2ccccc2)cc(C(F)(F)F)n1`, the Potency was inactive: > 76.9 µM.

`COc1ccc(C2CC(O)(C(C)(C)O)NO2)cc1` (stereo unspecified): the Potency is inactive: > 76.9 µM.

In the case of `Oc1ccccc1-c1nnc(-c2ccc(C(F)(F)F)cc2)o1`, the Potency was inactive: > 76.9 µM.

Take `CC(=O)Nc1cc(NC(=O)C2C3C=CC(C3)C2C(=O)O)ccc1Cl` (stereo unspecified): the Potency is inactive: > 76.9 µM.

As to `CC(=O)N1c2ccc(S(=O)(=O)CCC(=O)O)cc2CC1C` (stereo unspecified), the Potency was inactive: > 76.9 µM.

As for `Cc1nc(C)c(C(=O)C2=C(O)C(=O)N(CCN(C)C)C2c2ccccc2)s1` (stereo unspecified), the Potency is inactive: > 76.9 µM.

For the compound `COCC(=O)N(C)c1nnc(-c2cnccn2)s1`, the Potency is inactive: > 76.9 µM.
